Shown are siRNA guide strands that differ only in the seed, positions 2 to 7.
Columns and labels:
H4 = experiment: cell viability relative to siNT1 (ATP content); H4 human neuroglioma and GL261 mouse glioma; higher = less toxic; conditions: siRNA concentration 10 nM; 96 h; human
Method: (§1)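 Arrayed screen of all 4096 6mer seeds. Each seed sits at guide-strand positions 2-7 of a neutral 19mer siRNA backbone (siNT1-based, passenger strand 2'-O-methyl modified at positions 1-2 to block RISC loading, 3' DNA overhangs). The guide strand is built here as U + seed + ACAUGUAAACCA. Cells were reverse transfected in triplicate in 384-well plates (H4 at 10 nM, GL261 at 25 nM) with Lipofectamine RNAiMAX. Viability was read as ATP content (CellTiter-Glo) 96 h after transfection and normalised to siNT1 (%).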

GL261 = experiment: as above; conditions: siRNA concentration 25 nM; 96 h; mouse
Method: as §1
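Further: cells reverse transfected with siRNA duplexes via lipid reagent, ATP read by luminescence, triplicate wells, values scaled to mean viability with non-targeting control siNT1.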

| Sequence | cell viability (H4) | cell viability (GL261) |
| --- | --- | --- |
| UAUUGCGACAUGUAAACCA | 91.7% | 58.2% |
| UAUUGCUACAUGUAAACCA | 65.9% | 43.6% |
| UAUUGGAACAUGUAAACCA | 67.4% | 61.4% |
| UAUUGGCACAUGUAAACCA | 69.8% | 9.92% |
| UAUUGGGACAUGUAAACCA | 56.5% | 66.2% |
| UAUUGGUACAUGUAAACCA | 55.4% | 84.5% |
| UAUUGUAACAUGUAAACCA | 72.3% | 80.5% |
| UAUUGUCACAUGUAAACCA | 77.7% | 44.1% |
| UAUUGUGACAUGUAAACCA | 109% | 64.7% |
| UAUUGUUACAUGUAAACCA | 77.3% | 54.8% |
| UAUUUAAACAUGUAAACCA | 90.1% | 75.4% |
| UAUUUACACAUGUAAACCA | 97% | 60.5% |
| UAUUUAGACAUGUAAACCA | 110% | 62.3% |
| UAUUUAUACAUGUAAACCA | 106% | 50.5% |
| UAUUUCAACAUGUAAACCA | 103% | 62.9% |
| UAUUUCCACAUGUAAACCA | 84.8% | 18.6% |
| UAUUUCGACAUGUAAACCA | 101% | 55.5% |
| UAUUUCUACAUGUAAACCA | 75.3% | 44.7% |
| UAUUUGAACAUGUAAACCA | 116% | 51.3% |
| UAUUUGCACAUGUAAACCA | 68% | 32.4% |
| UAUUUGGACAUGUAAACCA | 96.2% | 43.2% |
| UAUUUGUACAUGUAAACCA | 99.4% | 59.7% |

| Sequence | cell viability (H4) | cell viability (GL261) |
| --- | --- | --- |
| UAUUUUAACAUGUAAACCA | 110% | 72.2% |
| UAUUUUCACAUGUAAACCA | 49% | 20.2% |
| UAUUUUGACAUGUAAACCA | 111% | 58.5% |
| UAUUUUUACAUGUAAACCA | 92% | 64.2% |
| UCAAAAAACAUGUAAACCA | 87.7% | 50.4% |
| UCAAAACACAUGUAAACCA | 112% | 67.2% |
| UCAAAAGACAUGUAAACCA | 89.7% | 43.6% |
| UCAAAAUACAUGUAAACCA | 120% | 41.4% |
| UCAAACAACAUGUAAACCA | 112% | 53.2% |
| UCAAACCACAUGUAAACCA | 77% | 32.3% |
| UCAAACGACAUGUAAACCA | 105% | 64% |
| UCAAACUACAUGUAAACCA | 78.2% | 44.1% |
| UCAAAGAACAUGUAAACCA | 112% | 56.4% |
| UCAAAGCACAUGUAAACCA | 65.9% | 9.35% |
| UCAAAGGACAUGUAAACCA | 92.9% | 46.6% |
| UCAAAGUACAUGUAAACCA | 70.5% | 35.6% |
| UCAAAUAACAUGUAAACCA | 83.8% | 52.5% |
| UCAAAUCACAUGUAAACCA | 85.5% | 42.2% |
| UCAAAUGACAUGUAAACCA | 100% | 59.1% |
| UCAAAUUACAUGUAAACCA | 113% | 88.9% |
| UCAACAAACAUGUAAACCA | 95.3% | 58.9% |
| UCAACACACAUGUAAACCA | 103% | 35.1% |

| Sequence | cell viability (H4) | cell viability (GL261) |
| --- | --- | --- |
| UCAACAGACAUGUAAACCA | 83.2% | 41.3% |
| UCAACAUACAUGUAAACCA | 91.7% | 63% |
| UCAACCAACAUGUAAACCA | 66.9% | 61% |
| UCAACCCACAUGUAAACCA | 48.4% | 35.3% |
| UCAACCGACAUGUAAACCA | 100% | 34.7% |
| UCAACCUACAUGUAAACCA | 71.4% | 40.6% |
| UCAACGAACAUGUAAACCA | 75.1% | 40.7% |
| UCAACGCACAUGUAAACCA | 82.3% | 46.3% |
| UCAACGGACAUGUAAACCA | 100% | 58.5% |
| UCAACGUACAUGUAAACCA | 88.8% | 56% |
| UCAACUAACAUGUAAACCA | 87.6% | 46.6% |
| UCAACUCACAUGUAAACCA | 82.3% | 62.8% |
| UCAACUGACAUGUAAACCA | 93.5% | 50.2% |
| UCAACUUACAUGUAAACCA | 111% | 48% |
| UCAAGAAACAUGUAAACCA | 117% | 91.7% |
| UCAAGACACAUGUAAACCA | 60.9% | 38.7% |
| UCAAGAGACAUGUAAACCA | 85.4% | 90.5% |
| UCAAGAUACAUGUAAACCA | 77.4% | 39.7% |
| UCAAGCAACAUGUAAACCA | 115% | 63.4% |
| UCAAGCCACAUGUAAACCA | 41.9% | 19.7% |
| UCAAGCGACAUGUAAACCA | 107% | 53.4% |
| UCAAGCUACAUGUAAACCA | 94.3% | 57.5% |

| Sequence | cell viability (H4) | cell viability (GL261) |
| --- | --- | --- |
| UCAAGGAACAUGUAAACCA | 93.6% | 63.5% |
| UCAAGGCACAUGUAAACCA | 44.4% | 16.5% |
| UCAAGGGACAUGUAAACCA | 84.5% | 30.7% |
| UCAAGGUACAUGUAAACCA | 60.2% | 35.6% |
| UCAAGUAACAUGUAAACCA | 95.8% | 66.4% |
| UCAAGUCACAUGUAAACCA | 68% | 29.6% |
| UCAAGUGACAUGUAAACCA | 99.9% | 61.5% |
| UCAAGUUACAUGUAAACCA | 104% | 46.5% |
| UCAAUAAACAUGUAAACCA | 86.2% | 59.6% |
| UCAAUACACAUGUAAACCA | 81.1% | 37.3% |
| UCAAUAGACAUGUAAACCA | 121% | 48.4% |
| UCAAUAUACAUGUAAACCA | 101% | 65.4% |
| UCAAUCAACAUGUAAACCA | 108% | 42.6% |
| UCAAUCCACAUGUAAACCA | 43.9% | 23.6% |
| UCAAUCGACAUGUAAACCA | 82.7% | 50.5% |
| UCAAUCUACAUGUAAACCA | 85.4% | 47.6% |
| UCAAUGAACAUGUAAACCA | 104% | 88.3% |
| UCAAUGCACAUGUAAACCA | 75.3% | 15.2% |
| UCAAUGGACAUGUAAACCA | 73.8% | 54.9% |
| UCAAUGUACAUGUAAACCA | 82% | 44.5% |

— the supplement of paper PMC8948288
